Results on 51 sequences are retold here after publication PMC5892938.

The other results are listed elsewhere or left out. The exact form of the protein is not confirmed.

The target in this test is GST-SBP-ILF3 (Homo sapiens) (UniProt Q12906). In words: targeted RNA Bind-n-Seq. The following applies: RBNS binding buffer: 25 mM Tris pH 7.5, 150 mM KCl, 3 mM MgCl2, 0.1% Tween, 0.5 mg/mL BSA, 1 mM DTT; 27 nM protein, 750 pM RNA pool; temperature not stated; high values mean tight binding; sequences stand for … in GGGUAAAAGCGAGGUGAA…CGGGACAAGUAUUAUGGG
Regarding “UUUUUUUUUUGAGAUGGUGACCAUCUCCUG [tttttgagapaired]”, the binding signal (log2 fold change) came to 0.429.

On to “UUUUUUUUUUGAGACGGGAGCCGUCUCCUG [tttttgagapaired]”, for which the binding signal (log2 fold change) is 0.524.

As to “UUUUUUUUUUGAGACGGGAUCCGUCUUCUA [tttttgagapaired]”, the binding signal (log2 fold change) was 0.0738.

For “GUUGGUGGUGUUGGAACCUAACACCGCCGA [gtspaired]”, the binding signal (log2 fold change) was -0.494.

Take “UUUUUUUUUUGAGAGCGUCACGCUCUCCGG [tttttgagapaired]”: the binding signal (log2 fold change) turned out to be 0.607.

With “GUGUUGUGUGUUGGCAUCUAACACACAGCG [gtspaired]”, the binding signal (log2 fold change) is -0.749.

Take “UUUUUUUUUUGAGACUGCAGCAGUCUCCAG [tttttgagapaired]”: the binding signal (log2 fold change) turned out to be 0.612.

For the sequence “UUUUUUUUUUGAGAGGGGUCCCCUCUCCUG [tttttgagapaired]”, the binding signal (log2 fold change) came out at 1.03.

Take “UUUUUUUUUUGAGAUGGGAGCCAUCUCCGG [tttttgagapaired]”: the binding signal (log2 fold change) was 0.209.

Regarding “UUUUUUUUUUGAGACGGGCGCCGUCUCCUG [tttttgagapaired]”, the binding signal (log2 fold change) was found to be 0.876.

Consider “UUUUUUUUUUGAGAUCGUGUCGAUCUCCAG [tttttgagapaired]”, for which the binding signal (log2 fold change) was 0.378.

Consider “GUGGUGUGUGUUGGCUCCUAACACACAUCG [gtspaired]”, for which the binding signal (log2 fold change) is -0.591.

“GUGUGUUGUGUUGGAGUCUAACACAGCGCG [gtspaired]”: the binding signal (log2 fold change) was -0.804.

On to “GGUGGUUGUGUUGGAGUCUAACACAAUCGC [gtspaired]”, for which the binding signal (log2 fold change) was -0.0498.

As to “UUUUUUUUUUGAGACCGUGUCGGUCUCCGG [tttttgagapaired]”, the binding signal (log2 fold change) amounted to 0.651.

“UUUUUUUUUUGAGAGGGGCGCCCUCUCCGG [tttttgagapaired]”: the binding signal (log2 fold change) was 0.707.

In the case of “UUUUUUUUUUGAGACGGACUCCGUCUUCUA [tttttgagapaired]”, the binding signal (log2 fold change) is 0.408.

Regarding “UUUUUUUUUUGAGAGCGGCACGUUCUCCGG [tttttgagapaired]”, the binding signal (log2 fold change) stood at 0.452.

As for “GGUGGUGGUGUUGGUAUCUAACACCAUCGC [gtspaired]”, the binding signal (log2 fold change) is -0.488.

In the case of “UUUUUUUUUUGAGAGCGAGCCGUUCUCCAG [tttttgagapaired]”, the binding signal (log2 fold change) was determined as 0.322.

For “UUUUUUUUUUGAGAGGGCUUCCCUCUCCGG [tttttgagapaired]”, the binding signal (log2 fold change) stood at 0.414.

With “GUGGUGUGUGUUGGUGCCUAACACAUACCA [gtspaired]”, the binding signal (log2 fold change) is -0.503.

Consider “GUGGUGUGUGUUGGAUCCUAACACAUACCA [gtspaired]”, for which the binding signal (log2 fold change) is -0.543.

For “GUGGUUGGUGUUGGUGCCUAACACCGACCG [gtspaired]”, the binding signal (log2 fold change) is -0.532.

Turning to “GUUGUGUGUGUUGGAACCUAACACACACGA [gtspaired]”, the binding signal (log2 fold change) is -0.506.

For the sequence “UUUUUUUUUUGAGACGGACACCGUCUCCAG [tttttgagapaired]”, the binding signal (log2 fold change) was 0.401.

On to “GGUGUUGGUGUUGGAACCUAACACCAGCGC [gtspaired]”, for which the binding signal (log2 fold change) is -0.562.

In the case of “UUUUUUUUUUGAGACUGCAGCAGUUUCCGG [tttttgagapaired]”, the binding signal (log2 fold change) was 0.837.

In the case of “UUUUUUUUUUGAGACCGGAGCGGUCUUCUG [tttttgagapaired]”, the binding signal (log2 fold change) is 0.784.

As for “UUUUUUUUUUGAGACGGAUUCCGUUUCCGG [tttttgagapaired]”, the binding signal (log2 fold change) was 0.416.

Regarding “UUUUUUUUUUGAGACUGCUGCAGUCUCCGG [tttttgagapaired]”, the binding signal (log2 fold change) was 0.629.

Turning to “UUUUUUUUUUGAGAGCGUAACGCUCUCCUA [tttttgagapaired]”, the binding signal (log2 fold change) was found to be 0.212.

As for “GUGGUUGGUGUUGGUGUCUAACACCGACUA [gtspaired]”, the binding signal (log2 fold change) was -0.593.

Turning to “GUGGUUGGUGUUGGUCCCUAACACCGACCA [gtspaired]”, the binding signal (log2 fold change) was -0.265.

Turning to “UUUUUUUUUUGAGAUCGGUCCGAUCUCCUA [tttttgagapaired]”, the binding signal (log2 fold change) came to 0.401.

Take “UUUUUUUUUUGAGAGUGAAACACUCUCCAG [tttttgagapaired]”: the binding signal (log2 fold change) was -0.151.

Turning to “GGUGGUUGUGUUGGACUCUAACACAGCUAC [gtspaired]”, the binding signal (log2 fold change) was -0.707.

Take “UUUUUUUUUUGAGACUGAAUCAGUUUCCAG [tttttgagapaired]”: the binding signal (log2 fold change) was 0.27.

As to “UUCUCUCUUCCUCCAAUGGAGGAGGGGAGA [ctspaired]”, the binding signal (log2 fold change) was -0.674.

“UUUUUUUUUUGAGAGGGGACCCCUCUCCGG [tttttgagapaired]”: the binding signal (log2 fold change) was 0.782.

With “UUUUUUUUUUGAGACCGAAACGGUCUUCUG [tttttgagapaired]”, the binding signal (log2 fold change) came out at 0.4.

Turning to “UUCUCCUCUCCUCCGCCGGAGGGGAGGGGA [ctspaired]”, the binding signal (log2 fold change) was -0.643.

For “UUUUUUUUUUGAGAGGGUGUCCCUCUCCAG [tttttgagapaired]”, the binding signal (log2 fold change) came to 0.678.

For the sequence “GGUGUGUGUGUUGGAUUCUAACACAUACGC [gtspaired]”, the binding signal (log2 fold change) was -0.994.

For the sequence “GUGUGGUGUGUUGGUAUCUAACACAUCACG [gtspaired]”, the binding signal (log2 fold change) was -0.668.

On to “UUUUUUUUUUGAGAGGGCUUCCCUCUUCUA [tttttgagapaired]”, for which the binding signal (log2 fold change) stood at 0.381.

For “GUGUGUGGUGUUGGUGCCUAACACCAUACA [gtspaired]”, the binding signal (log2 fold change) is -0.327.

As to “UUUUUUUUUUGAGAGGGAACCCUUCUCCAG [tttttgagapaired]”, the binding signal (log2 fold change) turned out to be 0.0431.

With “UUUUUUUUUUGAGAUGGGAUCCAUUUCCUA [tttttgagapaired]”, the binding signal (log2 fold change) worked out at 0.0625.

For “GUGUGUUGUGUUGGUAUCUAACACAACGCA [gtspaired]”, the binding signal (log2 fold change) was -0.328.

Consider “GUUGUGUGUGUUGGAGUCUAACACACGCAG [gtspaired]”, for which the binding signal (log2 fold change) was -0.593.
